# According to PubChem BioAssay AID686979 (National Center for Advancing Translational Sciences (NCATS), 2013):
# In all, about 420,000 compounds went through this assay and about 50,000 (12%) were called active. The inconclusive results got no clear call from the source; some entries with a clear call stand among them for comparison. The call rests on the fitted dose curve; in most records, active means well fitted inhibition curve with a large enough effect; inconclusive means small, poorly fitted or top-dose-only effect; inactive means flat fitted curve, though single readings scatter. Potencies of inconclusive entries are left out as doubtful fits.
# Assay: qHTS for Inhibitors of human tyrosyl-DNA phosphodiesterase 1 (TDP1): qHTS in cells in presence of CPT; further: nearly all actives have a fitted effect of over 55% in size
# Conditions: chicken DT40 Tdp1-/-;hTDP1 cells + 20 nM CPT, ATP luminescence, 48 h; activity change, negative = growth inhibition: at 46.2 µM (top of the series) unless noted
# Method in brief: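 Cell growth measured by CellTiter-Glo luminescence after a minimum 48 h, 37 C compound exposure with 20 nM CPT in Tdp1-knockout DT40 cells stably expressing hTDP1, seeded 400/well; qHTS titration format.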
# On the % scale 0 is the no-effect control and ±100 the full control effect; potency means the concentration at half of the fitted maximal effect; tags describe the fitted curve by direction and shape.
SMILES,"activity change, negative = growth inhibition",Potency
Cc1cc(NC(=O)CN2C(=O)[C@@H]3[C@H](C2=O)[C@@H]2C[C@H]3C(Br)C2Br)no1 (stereo partly specified),inactive: -6.59%,
CCOc1cccc(CC(=O)N2CCc3c([nH]c4ccccc34)C2c2ccc(Cl)cc2)c1OCC (stereo unspecified),,active: 10.3 µM
Cc1cc(C)c2cc(CNC3CCCC3)c(Cl)nc2c1,,"inconclusive [inhibitor, partial curve]"
O=C(c1cccc(S(=O)(=O)N2CCN(c3ccccc3)CC2)c1)N1CCCCCCC1,,"inconclusive [inhibitor, single point]"
O=C(CN1C(=O)NC2(CCCCCC2)C1=O)c1ccc(OC(F)F)cc1OC(F)F,,"inconclusive [inhibitor, single point]"
COc1cc(Cl)c(C)cc1NC(=O)c1ccc2c(Cl)c3c(nc2c1)CCC3,inactive: 0.532%,
COc1ccc(N2C(=O)C(CC(=O)Nc3ccccc3)N(Cc3cccs3)C2=O)cc1 (stereo unspecified),,"inconclusive [inhibitor, partial curve, poor fit]"
Nc1nc(CN2CCCCC2)cs1,inactive: -2.23%,
CCC(C)NC(=S)Nc1ccc2nc(N3CCN(CC)CC3)cc(C)c2c1 (stereo unspecified),,"inconclusive [inhibitor, single point]"
CC(=O)N1CCN(c2ccc(NC(=O)COc3ccc(Cl)cc3Cl)cc2)CC1,,active: 23.1 µM
C=CC[C@H]1CC(C)=C[C@H](CC=C)N1C(=O)c1cc(COc2ccccc2SC)on1,,"inconclusive [inhibitor, single point]"
Cc1ccc2c(c1)c(N=NC(N)=S)c(O)n2Cc1ccccc1,,active: 4.11 µM
CCN(Cc1cc2cc(C)ccc2[nH]c1=O)C(=O)c1cccc(OC)c1,,"inconclusive [inhibitor, partial curve]"
NNc1nc2cccnc2n(CCNc2ncc(C(F)(F)F)cc2Cl)c1=O,,active: 16.4 µM
Cc1noc(C)c1COc1ccc(CC(=O)NCCc2ccccn2)cc1,inactive: -7.85%,
Cc1ccc(C)c(CSCc2nc3ccccc3[nH]2)c1,,"inconclusive [inhibitor, single point]"
COC(=O)/C(N=Nc1cccc(C(F)(F)F)c1)=C(\C)O,inactive: -2.24%,
NC(=O)c1cc2ccc(O)cc2oc1=NCc1ccccc1,,active: 18.4 µM
O=C(N/N=C/c1ccc(-c2cccc([N+](=O)[O-])c2)o1)c1ccccc1O,,"inconclusive [inhibitor, single point]"
CCn1c(SCC(=O)Nc2ccc(F)cc2)nc2ccccc2c1=O,inactive: -9.73%,
CCN(CC)C(=O)c1sc(NC(=O)c2ccco2)c(C#N)c1C,inactive: -16.7%,
